Data published in article PMC4336329 (PLoS ONE, 2015).
Hit rate of the full screen: of about 310,000 compounds, about 14,000 (4.5%) showed an effect of 50% or more. Effects have a minus sign here. Some of the results follow.

The compounds below were run against human ether-à-go-go-related gene (hERG) potassium channel (human, UniProt Q12809) (assay: primary screen, population patch clamp on CHO cells stably expressing hERG).
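Note: peak tail current of the secondary pulse compared with the same well before compound.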

Sequence of human ether-à-go-go-related gene (hERG) potassium channel (Q12809 whole entry, looked up): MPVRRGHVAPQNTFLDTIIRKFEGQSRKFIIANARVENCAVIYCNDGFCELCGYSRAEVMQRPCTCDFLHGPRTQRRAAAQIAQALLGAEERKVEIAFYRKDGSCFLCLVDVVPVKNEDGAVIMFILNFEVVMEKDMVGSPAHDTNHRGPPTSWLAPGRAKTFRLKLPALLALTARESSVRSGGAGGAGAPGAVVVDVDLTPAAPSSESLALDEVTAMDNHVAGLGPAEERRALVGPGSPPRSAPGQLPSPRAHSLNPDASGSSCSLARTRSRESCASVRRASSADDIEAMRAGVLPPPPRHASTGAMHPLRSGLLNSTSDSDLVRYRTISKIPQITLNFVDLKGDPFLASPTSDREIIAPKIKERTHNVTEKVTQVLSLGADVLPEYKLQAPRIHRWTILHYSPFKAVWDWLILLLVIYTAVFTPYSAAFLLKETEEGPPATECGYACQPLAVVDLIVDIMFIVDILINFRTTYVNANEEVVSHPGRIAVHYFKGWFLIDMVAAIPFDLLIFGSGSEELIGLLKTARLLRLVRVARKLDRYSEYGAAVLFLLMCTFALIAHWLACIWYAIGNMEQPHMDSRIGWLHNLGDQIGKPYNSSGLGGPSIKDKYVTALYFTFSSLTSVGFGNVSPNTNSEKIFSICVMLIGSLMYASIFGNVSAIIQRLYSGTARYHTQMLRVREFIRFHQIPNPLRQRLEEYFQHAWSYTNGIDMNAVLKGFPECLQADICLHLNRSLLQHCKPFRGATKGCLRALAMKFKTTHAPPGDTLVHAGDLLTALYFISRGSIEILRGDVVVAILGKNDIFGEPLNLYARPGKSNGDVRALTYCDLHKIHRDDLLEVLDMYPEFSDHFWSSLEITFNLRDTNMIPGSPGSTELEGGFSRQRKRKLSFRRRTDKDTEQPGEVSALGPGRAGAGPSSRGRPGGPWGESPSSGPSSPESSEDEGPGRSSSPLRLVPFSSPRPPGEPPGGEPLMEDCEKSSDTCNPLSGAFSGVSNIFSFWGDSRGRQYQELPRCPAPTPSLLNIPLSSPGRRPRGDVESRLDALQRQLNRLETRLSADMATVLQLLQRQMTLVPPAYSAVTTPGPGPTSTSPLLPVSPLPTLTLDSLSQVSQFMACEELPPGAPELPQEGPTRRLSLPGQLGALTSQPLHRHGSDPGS

| SMILES | hERG current change (%, negative = inhibition) at 10uM |
| --- | --- |
| Cc1oc2cc(Br)c(O)c(Br)c2c1-c1ccccc1 | -13.5% |
| Cc1cc(NCCCO)n2nc(-c3cccs3)cc2n1 | -39.6% |
| COc1cccc(CN2CCC(n3nccc3NC(=O)CCCc3ccccc3)CC2)c1 | -71.3% |
| CN1C(=O)c2ccc(NC(=S)NC(=O)C(C)(C)C)cc2C1=O | -6.06% |
| COc1ccc(CCNC(=O)NC2CCCCC2)cc1OC | 8.03% |
| CC(C(=O)O)c1ccc(N2Cc3ccccc3C2=O)cc1 (centres unmarked) | 20% |
| COc1ccccc1NC(=S)N1CCC(c2nc3ccccc3o2)CC1 | -9.31% |
| Cc1ccc(CN(CC(=O)NCCc2ccccc2)C(=O)c2csnn2)cc1 | -38.5% |
| COc1ccc(C(C(=O)NCc2ccccc2)N(C(=O)c2snc(C(N)=O)c2N)C2CCCC2)cc1 (centres unmarked) | -22.6% |
| CC(C)(Oc1ccc(Cl)cc1)C(=O)NCc1ccncc1 | -1.22% |
| COCCNC(=O)C(c1cccnc1)N(Cc1ccccc1)C(=O)Cn1nnc2ccccc21 (centres unmarked) | 11.9% |
| COc1cc(C(=O)Nc2cc(-c3ccccc3)[nH]n2)cc(OC)c1OC | -22.8% |
| Cc1ccc(OCC(=O)N/N=C2/SCC(=O)N2Cc2ccccc2)cc1 | -37.8% |
| COc1ccc(OCCCC(=O)Nc2nc(-c3ccccn3)cs2)cc1 | 15.1% |
| CCCCCc1cc(=O)oc2c(C(CCN3CCCCC3)c3ccc4c(c3)OCO4)c(OC)cc(OC)c12 (centres unmarked) | -54.3% |
| CSCC[C@H](NC(=O)OC(C)(C)C)c1nnc(SCC(=O)N(C)C)o1 | 9% |
| O=C(Nc1ccc(Cl)c(S(=O)(=O)N2CCCCC2)c1)c1cnccn1 | -42.6% |
| O=S(=O)(Nc1nc2c(s1)CCCC2)c1ccc2ccccc2c1 | 7.46% |
| Cc1cccc(-c2ncc(CN3CCN(CCC(C)C)C(CCO)C3)cn2)c1 (centres unmarked) | -45% |

| SMILES | hERG current change (%, negative = inhibition) at 10uM |
| --- | --- |
| COc1ccnc(N=CNOCc2cccc(C(F)(F)F)c2)c1C#N | 17.2% |
| Cc1ccc(/C=N/NC(=O)c2nnn(-c3nonc3N)c2CN(C)C)o1 | -7.52% |
| O=C(Cc1ccccc1)NCCS(=O)(=O)N1CCN(c2cccc(Cl)c2)CC1 | -82.8% |
| COc1cc(CNCc2cccnc2)ccc1OCC(=O)NC(C)(C)C.Cl | 19.4% |
| Cc1[nH]ccc(=O)c1OCc1ccc(Cl)cc1 | -3.48% |
| COc1cc(OC)cc(C(=O)NCC(=O)OCc2csc(-c3ccccc3)n2)c1 | 11% |
| COc1ccc(OC)c(S(=O)(=O)Nc2ccc3[nH]c(=O)[nH]c3c2)c1 | 11.3% |
| CC1(C)CC2CC(C)(CN2C(=O)COC(=O)Cn2[nH]c(=O)c3ccccc3c2=O)C1 (centres unmarked) | 2.26% |
| CCCCC(=O)N1CCCC(c2nc3c(nnn3Cc3cc(C)ccc3C)c(=O)[nH]2)C1 (centres unmarked) | -52.2% |
| CC(C)Oc1cccc(C(=O)C2CCCN(S(C)(=O)=O)C2)c1 (centres unmarked) | 12.7% |
| O=C(O)c1cccc(NC(=S)N/N=C/c2ccccc2OCc2ccc(Br)cc2)c1 | 9.12% |
| COC(=O)CCc1cccc(CCC(=O)OC)c1 | 3.19% |
| COc1cc(C2C(C#N)=C(N)Oc3n[nH]c(-c4ccccn4)c32)cc(OC)c1OC (centres unmarked) | 7.34% |
| COc1ccc(-c2cc(-c3ccccc3)no2)cc1 | 9.77% |
| COc1ccc(S(=O)(=O)N2CCC(C(=O)NCc3ccco3)CC2)cc1 | -25.4% |
| Cc1ccc2cccc(SCC(=O)NCC#N)c2n1 | 11.4% |
| CCOc1ccccc1NC(=O)C(OC(=O)C1CC1)c1ccccc1 (centres unmarked) | -10.3% |
| Cc1c(/C=C(\C#N)c2nn(-c3ccccc3)c(N)c2C#N)c2ccccc2n1Cc1ccc(F)cc1 | 4.69% |
| CCOC(=O)CN1C(=O)C(O)=C(C(C)=O)C1c1ccc(F)cc1 (centres unmarked) | 12.2% |

| SMILES | hERG current change (%, negative = inhibition) at 10uM |
| --- | --- |
| Cc1cc(C(=O)Nc2c(C)n(C)n(-c3ccccc3)c2=O)c(C)o1 | 20.1% |
| O=c1[nH]c(O)c(C=Nc2ccccc2Oc2ccccc2)c(=O)[nH]1 | 15.9% |
| O=C(NC1CCCCCCC1)c1cc([N+](=O)[O-])ccc1Cl | 1.32% |
| CSCC[C@H](NC(=O)c1cccc([N+](=O)[O-])c1C)c1nc2ccccc2[nH]1 | -11.6% |
| CCN(CC)S(=O)(=O)c1ccc(OC)c(NC(=S)Nc2cccc(C)c2C)c1 | -3.26% |
| CC1CC(C)CN(C(=O)CNS(=O)(=O)c2ccc(Br)s2)C1 (centres unmarked) | -1.92% |
| CCn1cnc2c1c(=O)n(CC(=O)OC)c(=O)n2Cc1ccccc1 | 15.4% |
| COc1ccccc1C1(CCN=Cc2ccc(N(C)C)cc2)CCOC(C)(C)C1 (centres unmarked) | -2.03% |
| Cc1ccc(S(=O)(=O)NCC(=O)N(CC(=O)NCc2ccco2)Cc2cccs2)cc1 | -48.4% |
| Cc1nnc(SCC(=O)NC2CC2)n1CCc1ccccc1 | 13% |
| CN(C)C(=O)c1cc(C(=O)c2ccccc2Br)c[nH]1 | 20.7% |
| Cc1ccc(C(=O)Nc2cccc(C(=O)N/N=C/c3ccccc3F)c2)cc1 | -1.85% |
| COc1ccc(OC)c(-c2nc(CN(C)C(C)c3ccncn3)c(C)o2)c1 (centres unmarked) | 0.284% |
| CCOC(=O)C1(C(F)(F)F)N=C(C(F)(F)F)Nc2cc(C)c(C)cc21 (centres unmarked) | -1.3% |
| COc1ccc(Nc2ccc(N3C(=O)CCCC3=O)cc2[N+](=O)[O-])cc1OC | 20.8% |
| Cc1[nH]c2ccc(C(=O)N3CCN(c4ccc(F)cc4)CC3)cc2c1C | 1.66% |
| C=CCn1c(SCC(=O)NCCOC)nnc1-c1cc2c(s1)CCC(CC)C2 (centres unmarked) | -4.36% |
| COCc1cc(=O)n2[nH]c(C(C)(C)C)cc2n1 | 18.5% |
